Assay results taken from the supplement of paper PMC4967469.
A lower IC50 marks a more sensitive line; a limit (>, <) means that the fit lies beyond the doses tested. For AUC the same curve is integrated over the 256-fold range of doses and scaled to a fraction; the more sensitive the line, the further below 1. For some assays here: Any top dose called inferred comes from the curve model; the source does not state it.

Assays:
Assay in all cases: Viability of human cancer cell lines after 72 h of drug (GDSC screen)
ZG-10 = compound: CN(C)C/C=C/C(=O)Nc1ccc(C(=O)Nc2cccc(Nc3nccc(-c4cccnc4)n3)c2)cc1 [ZG-10]; settings: top dose 10 µM; top dose inferred
Experimental: (§1)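 Human cancer cell lines in 384-well plates, medium with 10% serum, drug for 72 h over a 256-fold dose range (nine 2-fold or five 4-fold steps up to the top dose). Adherent lines were fixed and stained with the nucleic acid dye Syto60, suspension lines read with resazurin; signal relative to control wells, capped at 0 and 100%. One two-parameter sigmoid per drug and line, fitted in a mixed model over all curves with the slope shared within a line.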

IPA-3 = compound: Oc1ccc2ccccc2c1SSc1c(O)ccc2ccccc12 [IPA-3]; settings: top dose 32 µM; top dose inferred
Experimental: as §1

CI-1040 = compound: O=C(NOCC1CC1)c1ccc(F)c(F)c1Nc1ccc(I)cc1Cl [CI-1040]; settings: top dose 10 µM; top dose inferred
Experimental: as §1

Tubastatin A = compound: CN1CCc2c(c3ccccc3n2Cc2ccc(C(=O)NO)cc2)C1 [Tubastatin A]; settings: top dose 20 µM
Experimental: as §1

Z-LLNle-CHO = compound: CCCC[C@@H](C=O)NC(=O)[C@H](CC(C)C)NC(=O)[C@H](CC(C)C)NC(=O)OCc1ccccc1 [Z-LLNle-CHO]; settings: top dose 2.56 µM; top dose inferred
Experimental: as §1

Temozolomide = compound: Cn1nnc2c(C(N)=O)ncn2c1=O [Temozolomide]; settings: top dose 30 µM
Experimental: as §1

XL-880 = compound: COc1cc2c(Oc3ccc(NC(=O)C4(C(=O)Nc5ccc(F)cc5)CC4)cc3F)ccnc2cc1OCCCN1CCOCC1 [XL-880]; settings: top dose 5.12 µM; top dose inferred
Experimental: as §1

JW-7-52-1 = compound: CCC(=O)N1CCN(c2ccc(-n3c(=O)ccc4cnc5ccc(-c6cnc7ccccc7c6)cc5c43)cc2C(F)(F)F)CC1 [JW-7-52-1]; settings: top dose 1.2 µM; top dose inferred
Experimental: as §1

Cell Line	AUC (ZG-10)	IC50 (ZG-10) [nM]	AUC (IPA-3)	IC50 (IPA-3) [nM]	AUC (CI-1040)	IC50 (CI-1040) [nM]	AUC (Tubastatin A)	IC50 (Tubastatin A) [nM]	AUC (Z-LLNle-CHO)	IC50 (Z-LLNle-CHO) [nM]	AUC (Temozolomide)	IC50 (Temozolomide) [nM]	AUC (XL-880)	IC50 (XL-880) [nM]	AUC (JW-7-52-1)	IC50 (JW-7-52-1) [nM]
H9 (lymphoid neoplasm, suspension)	0.655	1540	0.783	11100	0.806	4050	0.983	> 20000	0.777	846	0.986	> 30000	0.612	611	0.526	86.9
RPMI-8226 (myeloma, suspension)			0.792	12400	0.692	1990			0.688	496	0.985	> 30000	0.828	2610	0.202	11.6
SCH (stomach, adherent)			0.986	> 32000	0.978	> 10000	0.988	> 20000	0.936	> 2560	0.94	> 30000	0.807	2890	0.59	135
IA-LM (large cell lung carcinoma, adherent)	0.775	4450	0.772	13900			0.979	> 20000	0.796	1360	0.976	> 30000	0.837	4040	0.406	40
EoL-1-cell (haematopoietic neoplasm, suspension)	0.286	169	0.947	> 32000	0.509	659	0.556	1740	0.783	947	0.845	17900	0.019	< 20	0.38	36.5
A101D (melanoma, adherent)	0.689	2410	0.834	27900	0.517	704	0.973	> 20000	0.615	356	0.938	> 30000	0.653	943	0.332	22.8
IST-MEL1 (melanoma, adherent)	0.633	1570	0.842	29000	0.862	> 10000	0.833	16500	0.796	1460	0.944	> 30000	0.558	474	0.332	23.2
LB996-RCC (kidney, adherent)	0.699	2500	0.983	> 32000			0.982	> 20000	0.818	1760	0.961	> 30000	0.776	2380	0.248	12.4
NMC-G1 (glioma, adherent)	0.799	6130	0.956	> 32000	0.869	> 10000	0.919	> 20000	0.786	1390	0.97	> 30000	0.568	514	0.328	22.1
SW684 (fibrosarcoma, adherent)	0.846	> 10000	0.846	> 32000	0.964	> 10000	0.982	> 20000	0.981	> 2560	0.98	> 30000	0.983	> 5120	0.925	> 1200
GI-1 (glioma, adherent)	0.693	2110	0.879	30500	0.96	> 10000	0.894	> 20000	0.946	> 2560	0.913	> 30000	0.458	246	0.348	29
KGN (ovary, adherent)	0.723	3120	0.707	8820	0.843	9440	0.909	> 20000	0.763	1110	0.978	> 30000	0.357	117	0.211	8.54
SW982 (soft tissue, adherent)	0.611	1270	0.733	9470	0.734	2980	0.983	> 20000	0.743	815	0.983	> 30000	0.594	583	0.303	20.5
SF126 (glioma, adherent)	0.782	4430	0.842	24200	0.807	5450	0.981	> 20000	0.815	1500	0.979	> 30000	0.613	667	0.411	42.2
HOP-62 (lung adenocarcinoma, adherent)			0.833	20600	0.833	6400	0.883	> 20000	0.796	1200	0.984	> 30000	0.615	662		
MOLT-13 (T-cell lymphoblastic leukaemia, suspension)					0.82	4850	0.695	4090			0.97	> 30000	0.494	309	0.711	271
LS-411N (large intestine, adherent)			0.976	> 32000	0.615	1390	0.9	> 20000	0.776	1250	0.979	> 30000	0.642	863	0.377	31.9
TE-11 (oesophagus, adherent)			0.974	> 32000	0.881	8930	0.99	> 20000	0.834	1470	0.988	> 30000	0.75	1550		
MFH-ino (soft tissue, adherent)			0.956	> 32000	0.737	3390	0.963	> 20000	0.783	1280	0.978	> 30000	0.758	2070	0.352	27
SU-DHL-8 (B-cell lymphoma, suspension)	0.826	5530	0.539	2530			0.693	4150	0.679	488	0.978	> 30000	0.504	328	0.434	50.2

Cell Line	AUC (ZG-10)	IC50 (ZG-10) [nM]	AUC (IPA-3)	IC50 (IPA-3) [nM]	AUC (CI-1040)	IC50 (CI-1040) [nM]	AUC (Tubastatin A)	IC50 (Tubastatin A) [nM]	AUC (Z-LLNle-CHO)	IC50 (Z-LLNle-CHO) [nM]	AUC (Temozolomide)	IC50 (Temozolomide) [nM]	AUC (XL-880)	IC50 (XL-880) [nM]	AUC (JW-7-52-1)	IC50 (JW-7-52-1) [nM]
TE-10 (oesophagus, adherent)	0.692	2130	0.851	23800			0.985	> 20000	0.785	1070	0.986	> 30000	0.847	3660	0.389	37.5
RCC10RGB (kidney, adherent)			0.78	31000	0.909	> 10000	0.967	> 20000	0.94	> 2560	0.962	> 30000	0.797	> 5120	0.863	> 1200
K-562 (chronic myeloid leukaemia, suspension)	0.687	2050	0.96	> 32000					0.858	2000					0.56	109
PSN1 (pancreas, adherent)			0.695	6380	0.592	1070	0.832	10100	0.689	489	0.991	> 30000	0.439	225	0.241	15.6
HA7-RCC (kidney, adherent)			0.983	> 32000	0.88	> 10000	0.984	> 20000	0.792	1290	0.982	> 30000	0.588	572	0.251	13.3
SK-UT-1 (soft tissue, adherent)			0.899	> 32000	0.866	7600	0.988	> 20000	0.775	924	0.974	> 30000	0.841	3100	0.319	24.7
CP67-MEL (melanoma, adherent)									0.576	301						
A388 (skin, adherent)	0.772	4420	0.898	> 32000	0.856	9980	0.983	> 20000	0.743	896	0.98	> 30000	0.73	1620		
EM-2 (chronic myeloid leukaemia, suspension)			0.978	> 32000	0.593	1160	0.89	> 20000	0.778	1180	0.966	> 30000	0.433	205	0.542	99.3
K2 (melanoma, adherent)	0.589	1180	0.981	> 32000	0.546	863	0.977	> 20000			0.97	> 30000	0.766	2450		
SF295 (glioma, adherent)	0.868	> 10000	0.888	> 32000	0.88	> 10000	0.958	> 20000			0.969	> 30000	0.552	450		
NCI-H2110 (non-small cell lung carcinoma, adherent)	0.985	> 10000	0.986	> 32000	0.815	5680	0.887	> 20000			0.978	> 30000	0.574	513		
D-392MG (glioma, adherent)	0.828	9430	0.976	> 32000	0.868	> 10000	0.975	> 20000			0.976	> 30000	0.53	399		
MDA-MB-330 (breast, adherent)	0.758	3940	0.962	> 32000	0.942	> 10000	0.931	> 20000			0.984	> 30000	0.916	> 5120		
HARA (lung squamous cell carcinoma, adherent)	0.787	5150	0.968	> 32000	0.848	9390	0.933	> 20000			0.981	> 30000	0.68	1110		
MV-4-11 (leukaemia, suspension)			0.742	8400	0.678	1770			0.733	637	0.989	> 30000			0.504	76.8
DOHH-2 (B-cell lymphoma, suspension)			0.797	14700	0.785	4180			0.728	698					0.159	6.99
NCI-H28 (mesothelioma, adherent)	0.749	4170	0.981	> 32000	0.855	> 10000	0.975	> 20000			0.977	> 30000	0.828	4610		
HT-144 (melanoma, adherent)			0.781	14900			0.968	> 20000	0.665	488	0.982	> 30000	0.82	3400	0.26	14.1
